Measurements as given in PubChem BioAssay AID1240 (Sanford-Burnham Center for Chemical Genomics, 2008).
Screen size: about 50,000 compounds; about 800 (1.6%) showed an effect of 50% or more. This is one part of the list.

biological target: Bcl-2-like protein 10 (Homo sapiens) (UniProt Q9HD36); assay: Phenotype converters, Bcl-B/TR3 peptide binding displacement, primary biochemical FP (AID 1240); conditions: GST-Bcl-B / FITC-TR3 peptide fluorescence polarization; stronger effect = higher value; compound at 3.75 mg/L;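 also: 0% = Bcl-B with tracer peptide and DMSO and 100% = tracer peptide lacking Bcl-B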
UniProt Q9HD36, sequence (Q9HD36 whole entry, looked up): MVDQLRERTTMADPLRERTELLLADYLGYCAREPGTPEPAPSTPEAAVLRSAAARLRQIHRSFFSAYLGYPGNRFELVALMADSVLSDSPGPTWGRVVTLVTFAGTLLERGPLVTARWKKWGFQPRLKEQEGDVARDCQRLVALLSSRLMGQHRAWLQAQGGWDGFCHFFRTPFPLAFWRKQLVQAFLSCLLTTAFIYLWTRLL

Question: For `COc1ccc(CNCCc2ccc(Cl)cc2)cc1`, which displacement is on record?
Answer: 14%

Question: For `O=[N+]([O-])c1ccc(NCCCO)c2ncccc12`, which displacement is on record?
Answer: 8.8%

Question: For `O=[N+]([O-])c1ccc(CN2CCN(Cc3cccc(Cl)c3)CC2)cc1`, which displacement is on record?
Answer: -10.6%

Question: With `O=[N+]([O-])/C=C/c1ccccc1OCc1ccc(Cl)cc1Cl` as the molecule, how does the displacement read?
Answer: 4.5%

Question: Which displacement does the source give for `O=C(Nc1ccc(Cl)cc1C(=O)c1ccccc1)c1ccc(S(=O)(=O)N2CCCCC2)cc1` here?
Answer: -7.3%

Question: `Clc1ccc(CNCCc2ccc3c(c2)OCO3)cc1` was tested. Which displacement did it give?
Answer: -16.4%

Question: `O=Cc1cn(Cc2c(Cl)cccc2Cl)c2ccccc12` was tested. Which displacement did it give?
Answer: 4.7%

Question: How did the displacement turn out when `COc1cccc(-n2c(/C=C/c3cccnc3)nc3ccccc3c2=O)c1` was run?
Answer: 0.6%

Question: With `Cc1cc(/C=C2\C(=O)NC(=O)N(C)C2=O)c(C)n1-c1ccc2c(c1)OCO2` as the molecule, how does the displacement read?
Answer: 107%

Question: With `Oc1ccc(Br)cc1CN1CCN(Cc2cccc(Cl)c2)CC1` as the molecule, how does the displacement read?
Answer: 0.8%

Question: How did the displacement turn out when `O=C1CC(=O)N(c2ccccc2)C(=S)N1` was run?
Answer: -2.1%

Question: How did the displacement turn out when `O=c1c2ccccc2nc(/C=C/c2ccc(O)cc2)n1-c1ccccc1[N+](=O)[O-]` was run?
Answer: 0.1%

Question: For `CCC(CC)NCCc1ccc(OC)c(OC)c1`, which displacement is on record?
Answer: -5%

Question: How did the displacement turn out when `CC(=O)Oc1cc(C)cc2oc(=O)c3c(c12)CCCC3` was run?
Answer: -4.5%

Question: For `COc1ccc(CCNCc2cccn2C)cc1OC`, which displacement is on record?
Answer: 2.7%

Question: How did the displacement turn out when `NS(=O)(=O)c1ccc(N=Cc2c(O)n(C3CCCCC3)c(=O)n(C3CCCCC3)c2=O)cc1` was run?
Answer: 5.2%

Question: `COc1ccc(CN2CCN(C(=O)COc3ccc(Cl)cc3)CC2)cc1OCc1ccccc1` was tested. Which displacement did it give?
Answer: 7.4%

Question: For `Cc1cccnc1-n1c(C)nc2ccccc2c1=O`, which displacement is on record?
Answer: -7.8%

Question: `COc1ccc(-c2ccc(C=C3C(=O)NC(=O)NC3=O)o2)c([N+](=O)[O-])c1` was tested. Which displacement did it give?
Answer: 14%

Question: How did the displacement turn out when `Cc1cc(-c2ccc(C=C3C(=O)NC(=S)NC3=O)o2)cc([N+](=O)[O-])c1C` was run?
Answer: 7.7%

Question: For `COc1cc(OC)c(OC)cc1CNCCc1ccc(Cl)cc1`, which displacement is on record?
Answer: 13.6%

Question: Which displacement does the source give for `O=C1NC(=S)NC(=O)C1=Cc1ccccc1OCc1ccccc1F` here?
Answer: 15.3%

Question: How did the displacement turn out when `CCCCCn1c(=O)c(C(=O)Nc2cccc(C)c2)c(O)c2ccccc21` was run?
Answer: 3.9%

Question: Which displacement does the source give for `CCOc1ccc(N2C(=O)/C(=C/c3ccc(C)cc3)C(=O)NC2=S)cc1` here?
Answer: -14.1%

Question: Which displacement does the source give for `CCc1nc2ccccc2c(=O)n1-c1cccc([N+](=O)[O-])c1` here?
Answer: 7%

Question: With `COc1ccccc1CCNCc1ccc([N+](=O)[O-])cc1` as the molecule, how does the displacement read?
Answer: 2.4%

Question: With `O=C1c2ccccc2C(=O)N1Cc1nc2ccccc2c(=O)n1-c1ccc(Br)cn1` as the molecule, how does the displacement read?
Answer: 8.5%

Question: `COC(=O)C(=O)N1CC2(C)CNCC(C)(C1)C2=O` was tested. Which displacement did it give?
Answer: -9.7%

Question: How did the displacement turn out when `COc1cccc(C=C2C(=O)NC(=S)NC2=O)c1` was run?
Answer: 3.2%

Question: How did the displacement turn out when `CN(C)c1ccc(/C=C2/C(=O)C3CCN2CC3)cc1` was run?
Answer: 30.3%

Question: `O=[N+]([O-])c1cccc(CNCCc2cccc(F)c2)c1` was tested. Which displacement did it give?
Answer: 1.8%

Question: With `CC(/C=C/c1c[nH]c2ccccc12)=N/O` as the molecule, how does the displacement read?
Answer: 8.6%

Question: For `O=C1NC(=O)N(c2ccccc2Cl)C(=O)C1=Cc1ccccc1`, which displacement is on record?
Answer: 12.8%

Question: `Cc1ccc(-n2c(-c3ccccn3)nc3ccccc3c2=O)cc1` was tested. Which displacement did it give?
Answer: -3.9%

Question: How did the displacement turn out when `COc1ccc(CNCCc2ccc(Cl)cc2Cl)c(OC)c1` was run?
Answer: 9.6%

Question: For `Cc1ccc(C)n1-c1ccc(N2CCNCC2)c([N+](=O)[O-])c1`, which displacement is on record?
Answer: 17.9%

Question: With `COc1cc(/C=C/[N+](=O)[O-])cc(Br)c1O` as the molecule, how does the displacement read?
Answer: 7.3%

Question: With `O=c1c2ccccc2nc(-c2cccs2)n1-c1ccccn1` as the molecule, how does the displacement read?
Answer: 19.3%

Question: How did the displacement turn out when `COc1ccc(/C=C/C(=O)NC(C)Cc2ccccc2)cc1` (centres undefined) was run?
Answer: -12.2%

Question: How did the displacement turn out when `COc1cc(CNCCc2c[nH]c3ccccc23)cc(OC)c1O` was run?
Answer: -10.3%

Question: With `O=C1NC(=O)N(c2cccc(Br)c2)C(=O)/C1=C/c1ccc(-c2ccc(C(=O)O)cc2)o1` as the molecule, how does the displacement read?
Answer: -56.7%

Question: For `CN(C)c1ccc(/C=C\c2nc3ccccc3c(=O)n2-c2ccc(O)cc2)cc1`, which displacement is on record?
Answer: 9%

Question: For `COC(=O)C(=O)/C(=C\c1ccc(-c2ccccc2[N+](=O)[O-])o1)C(=O)c1ccccc1`, which displacement is on record?
Answer: 56.7%

Question: Which displacement does the source give for `O=C(Cc1ccc(Cl)cc1)N1CCN(C/C=C/c2ccccc2)CC1` here?
Answer: 11.2%

Question: How did the displacement turn out when `CN1CN(Cc2ccccc2)CN/C1=N/[N+](=O)[O-]` was run?
Answer: 11.8%

Question: How did the displacement turn out when `COc1cccc(N2C(=O)CC(=O)NC2=O)c1` was run?
Answer: -8.2%

Question: `CCOC(=O)c1c(-n2c(C)cc(C=C3C(=O)NC(=S)NC3=O)c2C)sc2c1CCCC2` was tested. Which displacement did it give?
Answer: 12%

Question: How did the displacement turn out when `O=c1c2ccccc2nc(-c2ccco2)n1-c1ccccn1` was run?
Answer: -8.3%

Question: How did the displacement turn out when `O=C(Nc1ccc(Cl)cc1C(=O)c1ccccc1)c1ccc([N+](=O)[O-])cc1` was run?
Answer: 2.1%

Question: With `Cc1nc2ccc(I)cc2c(=O)n1-c1ccc([N+](=O)[O-])cc1Cl` as the molecule, how does the displacement read?
Answer: 13%

Question: For `CN=C(C)c1c(O)n(C)c(=S)n(C)c1=O`, which displacement is on record?
Answer: 8.8%

Question: With `COc1cc(/C=C2/C(=O)NC(=O)N(c3ccccc3)C2=O)cc(Cl)c1O` as the molecule, how does the displacement read?
Answer: 7.5%

Question: For `c1ccc(CCCN2CCN(C3CCCCC3)CC2)cc1`, which displacement is on record?
Answer: -2.3%

Question: Which displacement does the source give for `Cc1ccc(-c2nc3ccccc3c(=O)n2-c2cccnc2)cc1` here?
Answer: -6.5%

Question: How did the displacement turn out when `Cc1cc(/C=C2\C(=O)NC(=O)N(c3cccc(Br)c3)C2=O)c(C)n1C` was run?
Answer: 126%

Question: For `O=[N+]([O-])c1ccc(NCCCN2CCOCC2)c2cccnc12`, which displacement is on record?
Answer: 15.1%

Question: `COc1ccc(CCNCc2cccc(Br)c2)cc1OC` was tested. Which displacement did it give?
Answer: 11.9%

Question: Which displacement does the source give for `Cc1[nH]c2ccc(S(=O)(=O)O)cc2c1CCN` here?
Answer: 3.7%

Question: `Cc1cc(Cl)ccc1OCC(=O)N1CCN(C)CC1` was tested. Which displacement did it give?
Answer: -6.7%

Question: `O=C(NC(O)C(Cl)(Cl)Cl)C1CC=CCC1` (centres undefined) was tested. Which displacement did it give?
Answer: -1%

Question: How did the displacement turn out when `O=[N+]([O-])c1cccc(CN2CCN(Cc3cccc(Br)c3)CC2)c1` was run?
Answer: 8%

Question: With `CC(C)N1CCN(Cc2cccc(Br)c2)CC1` as the molecule, how does the displacement read?
Answer: -4.4%

Question: `CCCCCP(=O)(O)c1ccccc1` was tested. Which displacement did it give?
Answer: -11%

Question: With `O=C1NC(=O)C(=Cc2cccc(O)c2)C(=O)N1` as the molecule, how does the displacement read?
Answer: -4.9%

Question: Which displacement does the source give for `COc1ccccc1CN1CCNCC1` here?
Answer: 1.8%

Question: With `Nc1ccc(Cc2ccc(N)c(Cl)c2)cc1Cl` as the molecule, how does the displacement read?
Answer: -0.7%

Question: With `Cc1cccc(C(=O)NC(Oc2ccccc2Cl)C(Cl)(Cl)Cl)c1` (centres undefined) as the molecule, how does the displacement read?
Answer: 11.7%

Question: `CCOC(=O)c1ccc(-c2ccc(C=C3C(=O)NC(=S)NC3=O)o2)cc1` was tested. Which displacement did it give?
Answer: -6.7%

Question: For `CC(C)C1C(=O)NC(=S)N(c2ccccc2)C1=O` (centres undefined), which displacement is on record?
Answer: -6.5%

Question: With `Clc1ccc(CCNCc2ccncc2)c(Cl)c1` as the molecule, how does the displacement read?
Answer: 6.3%

Question: With `COc1cc(/C=C2\C(=O)NC(=O)N(c3ccc(Br)cc3)C2=O)ccc1O` as the molecule, how does the displacement read?
Answer: -19.7%

Question: With `COc1ccc(C(c2c(O)c3ccccc3oc2=O)c2c(O)c3ccccc3oc2=O)cc1CSc1ccccn1` as the molecule, how does the displacement read?
Answer: -1.3%

Question: With `CCC(C)N1CCN(Cc2cccc(OC)c2OC)CC1` (centres undefined) as the molecule, how does the displacement read?
Answer: -4.1%

Question: `O=c1c2ccccc2nc(-c2ccc([N+](=O)[O-])cc2)n1-c1ccccc1` was tested. Which displacement did it give?
Answer: 2%
